Laboratory results reported in patent US20160251421A1 (AstraZeneca / MedImmune, published 2016).

Target: T1, biotinylated recombinant human Angiopoietin-2 (R&D Systems, Inc. Cat. No. BT623) (human, UniProt O15123 19-496, limits assumed, biotinylated (sites not given))
T1 construct: Bought reagent; also called Ang-2; Ang2
T1 sequence (looked up): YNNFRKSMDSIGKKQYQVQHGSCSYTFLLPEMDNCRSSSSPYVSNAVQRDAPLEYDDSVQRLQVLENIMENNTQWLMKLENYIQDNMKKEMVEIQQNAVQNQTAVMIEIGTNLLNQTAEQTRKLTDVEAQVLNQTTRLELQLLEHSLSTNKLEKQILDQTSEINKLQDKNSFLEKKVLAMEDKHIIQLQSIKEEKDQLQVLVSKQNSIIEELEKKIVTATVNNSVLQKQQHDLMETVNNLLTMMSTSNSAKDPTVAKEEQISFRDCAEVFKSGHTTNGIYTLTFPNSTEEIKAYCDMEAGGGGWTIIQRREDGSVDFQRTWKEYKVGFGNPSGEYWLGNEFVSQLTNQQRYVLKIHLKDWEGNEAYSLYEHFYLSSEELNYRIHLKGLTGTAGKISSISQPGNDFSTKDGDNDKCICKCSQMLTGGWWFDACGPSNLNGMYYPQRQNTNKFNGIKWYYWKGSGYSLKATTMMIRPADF
Assay: competitive binding ELISA: biotinylated Angiopoietin-2 on plate-coated Tie-2/Fc, purified mAb

B1: anti-Ang-2 monoclonal antibody 5.78.3 (antibody, V domains shown)
VH: not shown
VL: DIVMTQSPDSLAVSLGERATINCKSSQSVLYSSNNQNFLAWYQQKPGQPPKLLIYWASTRESGVPDRFSGSGSGTDFTLTISSLQAEDVAVYYCHQYYSTPITFGQGTRLEIKR
notes: Fully human IgG kappa from XenoMouse hybridoma (strains XMG2 and XMG4); IgG purified from hybridoma supernatant; also called mAb 5.78.3
With B1 the “Efficacy (ratio of bound Angiopoietin-2 with mAb (30 µg/ml) versus without mAb)” value was 0.262 ratio.
